Measurements taken from the supplement of paper PMC7826260.
This is one part of the list. One pool of 16,384 single-stranded DNAs met each Rep nickase domain in vitro at 3 µM enzyme and 37 °C for 1 h; the strands have 90 letters, of which the middle is given. Numbers give uncut DNA relative to the enzyme-free pool, as log2; more negative means more cut, near 0 not cut, and no call is made. Shares of all reads are compared, so uncut sequences can rise above 0 when many others are cut.

Legend:
Test in all cases: uncleaved DNA left, log2 of reads against the no-enzyme library (log2 ratio); higher = less cleavage (more negative = more Rep cleavage of the k-mer); sequences stand for … in CTCGTCCG…ACCGGAGA
[1] = test system: T1, Rep nickase domain of Muscovy duck circovirus
T1 sequence (residues 1-111, tag not shown): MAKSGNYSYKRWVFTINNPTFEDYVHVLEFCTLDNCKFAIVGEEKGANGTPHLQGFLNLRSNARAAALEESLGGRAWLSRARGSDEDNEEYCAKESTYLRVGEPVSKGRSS
Protocol: (§1)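 A pool of 90-nt single-stranded DNAs with seven random bases just before the constant AC of the nick site (name = the seven bases) was cut by 3 µM recombinant His6-SUMO-tagged Rep nickase domain (300 nM DNA, 50 mM HEPES pH 8.0, 50 mM NaCl, 1 mM MnCl2, 1 h, 37 °C, three replicates). Uncut DNA was amplified and sequenced.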

[2] = test system: T2, Rep nickase domain of banana bunchy top virus
T2 sequence (residues 1-94, tag not shown): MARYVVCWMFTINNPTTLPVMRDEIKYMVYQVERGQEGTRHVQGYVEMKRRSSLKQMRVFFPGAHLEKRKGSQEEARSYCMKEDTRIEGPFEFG
Protocol: as §1

[3] = test system: T3, Rep nickase domain of cabbage leaf curl virus
T3 sequence (residues 1-116, tag not shown): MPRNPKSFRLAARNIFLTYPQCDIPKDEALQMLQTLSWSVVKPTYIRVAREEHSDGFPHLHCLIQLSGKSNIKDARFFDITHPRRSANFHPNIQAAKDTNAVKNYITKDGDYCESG
Protocol: as §1

[4] = test system: T4, Rep nickase domain of chickpea chlorotic dwarf virus
T4 sequence (residues 1-124, tag not shown): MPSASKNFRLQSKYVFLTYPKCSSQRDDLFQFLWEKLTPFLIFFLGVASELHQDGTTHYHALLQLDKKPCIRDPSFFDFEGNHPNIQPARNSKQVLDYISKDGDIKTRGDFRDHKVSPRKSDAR
Protocol: as §1

[5] = test system: T5, Rep nickase domain of faba bean necrotic yellows virus
T5 sequence (residues 1-98, tag not shown): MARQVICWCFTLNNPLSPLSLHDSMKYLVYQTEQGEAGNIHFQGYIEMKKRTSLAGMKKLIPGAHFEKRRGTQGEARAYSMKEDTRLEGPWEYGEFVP
Protocol: as §1

[6] = test system: T6, Rep nickase domain of maize striate mosaic virus
T6 sequence (residues 1-117, tag not shown): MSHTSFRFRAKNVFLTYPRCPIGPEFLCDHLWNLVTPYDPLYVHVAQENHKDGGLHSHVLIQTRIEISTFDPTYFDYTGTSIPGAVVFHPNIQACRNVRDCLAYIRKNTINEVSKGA
Protocol: as §1

[7] = test system: T7, Rep nickase domain of porcine circovirus 2
T7 sequence (residues 2-116, tag not shown): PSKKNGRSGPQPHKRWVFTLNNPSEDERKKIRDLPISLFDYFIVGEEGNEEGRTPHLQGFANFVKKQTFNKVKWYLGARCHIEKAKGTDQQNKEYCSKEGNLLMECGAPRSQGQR
Protocol: as §1

[8] = test system: T8, Rep nickase domain of tomato yellow leaf curl virus
T8 sequence (residues 1-136, tag not shown): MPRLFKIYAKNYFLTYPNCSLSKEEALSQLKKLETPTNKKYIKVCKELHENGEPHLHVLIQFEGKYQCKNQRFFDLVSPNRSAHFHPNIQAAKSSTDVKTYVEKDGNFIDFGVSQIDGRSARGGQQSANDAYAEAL
Protocol: as §1

[9] = test system: T9, Rep nickase domain of wheat dwarf virus
T9 sequence (residues 1-137, tag not shown): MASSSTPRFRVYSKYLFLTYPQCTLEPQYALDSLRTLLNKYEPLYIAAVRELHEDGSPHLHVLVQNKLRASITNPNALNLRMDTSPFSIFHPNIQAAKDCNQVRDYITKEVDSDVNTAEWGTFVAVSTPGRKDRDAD
Protocol: as §1

Sequence	uncleaved DNA left (log2) [1]	uncleaved DNA left (log2) [2]	uncleaved DNA left (log2) [3]	uncleaved DNA left (log2) [4]	uncleaved DNA left (log2) [5]	uncleaved DNA left (log2) [6]	uncleaved DNA left (log2) [7]	uncleaved DNA left (log2) [8]	uncleaved DNA left (log2) [9]
CAATAGA	0.0324	-0.037	-0.341	-0.925	-0.014	-1.05	-0.0506	-0.0477	0.0611
AGGGCAT	-0.0432	0.0233	0.591	1.95	0.0712	2.09	0.109	-0.119	0.139
GGTACGT	0.0298	0.127	0.813	1.92	-0.0427	2.16	0.119	0.0611	0.0345
TTAAAGA	0.0763	0.125	0.0749	0.0519	0.0343	-0.664	0.127	0.142	0.088
AATATTA	-0.0195	-0.105	-0.862	-2.51	-0.099	-1.03	-0.34	-0.198	-0.132
TCGACGT	0.0448	-0.0375	0.0208	0.442	-0.105	0.859	-0.0297	0.0333	0.151
CTTAACT	0.133	0.0856	-0.417	-3.15	0.194	-0.716	-0.331	0.183	0.21
TAACGAT	-0.11	-0.229	-2.01	-2.85	-0.12	0.401	-0.252	-0.163	-0.654
TCACTTC	-0.0511	-0.107	-0.0641	-0.708	-0.176	-0.834	-0.0132	-0.164	-0.189
TTATTAG	0.116	0.0172	-0.751	-0.453	0.127	-1.31	0.276	0.0837	0.0248
GAGAGTT	0.0595	-0.313	0.247	-0.298	-0.291	1.35	-2.53	-0.00264	0.0963
ATCGAGT	0.0594	-0.0487	-0.133	-0.0801	0.0151	-0.409	-0.105	-0.121	0.0139
ACCTAAG	0.0175	0.0149	-0.641	0.382	0.0138	-0.506	0.204	0.0276	-0.0467
TCTGGGT	-0.104	-0.0755	0.0517	0.781	-0.203	1.07	0.0737	-0.153	-0.188
TCTGGAC	0.0178	0.0896	0.334	1.05	-0.00475	1.23	0.0603	0.0245	0.0649
AAACGAA	-0.0239	-0.0569	-0.197	-0.728	0.0317	-0.827	0.0129	-0.185	-0.00521
AGCCGGT	0.0855	0.0178	0.172	0.465	0.0688	0.926	-0.0875	-0.0404	-0.0105
ACTACGG	0.00715	0.033	-0.231	-0.0563	0.0285	-0.538	0.00312	-0.0158	-0.0525
TGGGGGG	0.031	-0.0329	0.125	0.329	-0.125	0.296	0.13	-0.069	-0.199
GAATCTG	0.0762	0.0808	0.0952	0.56	0.0506	0.941	0.0525	-0.0131	0.0766
GCAGGCG	-0.123	0.0625	-0.338	1.07	0.065	0.665	0.156	0.00427	-0.0314
TGGATAT	0.157	0.091	0.971	2.08	0.00687	2.3	0.331	0.204	0.217
GGGAGAA	-0.02	0.0945	0.845	2.07	-0.0148	2.22	0.162	-0.0548	0.0766
TATAGAC	0.104	0.00489	0.292	0.521	0.0798	0.0846	0.0967	0.112	0.0823
GTCGCCG	-0.0412	0.0102	0.0621	0.0329	0.041	-0.096	0.0355	-0.0692	-0.113
ACCGCGA	0.154	0.0911	-0.157	0.818	0.177	0.228	0.222	0.109	0.0333
TAGGCAA	0.0428	0.145	0.41	0.493	-0.015	0.436	0.0308	0.137	0.173
AGTTCCC	-0.0196	0.0262	0.198	0.428	-0.0224	0.383	-0.265	0.0168	0.043
AAAGCTA	0.0958	0.083	0.271	0.623	0.0276	1.21	0.106	-0.0889	0.094
ATTTCGA	-0.063	-0.0555	-0.608	-0.685	0.0525	-1.19	0.0685	-0.0463	-0.064
